# Reference: PubChem BioAssay AID686979 (National Center for Advancing Translational Sciences (NCATS), 2013)
# Values joined by “and” are separate entries in the source; they are usually repeats but may differ in a detail not shown here. Equal entries are not always repeated. Hit rate of the full screen: of about 420,000 compounds, about 50,000 (12%) were called active. This list was built around the results that the source calls inconclusive (neither active nor inactive); the mix of calls is not that of the screen. Calls follow the shape of the dose curve; as a rule, active = well fitted inhibition curve with a large enough effect; inconclusive = small, poorly fitted or top-dose-only effect; inactive = flat fitted curve, though single readings scatter. A potency beside an inconclusive call is a rough fit, not a confirmed value.
# Assay: qHTS for Inhibitors of human tyrosyl-DNA phosphodiesterase 1 (TDP1): qHTS in cells in presence of CPT; also: nearly all actives have a fitted effect of over 55% in size
# Settings: chicken DT40 Tdp1-/-;hTDP1 cells + 20 nM CPT, ATP luminescence, 48 h; activity change, negative = growth inhibition: at 46.2 µM (top of the series)
# Procedure, shortened: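 Cell growth measured by CellTiter-Glo luminescence after a minimum 48 h, 37 C compound exposure with 20 nM CPT in Tdp1-knockout DT40 cells stably expressing hTDP1, seeded 400/well; qHTS titration format.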
# % is scaled to controls: 0 for no effect and ±100 for the full control effect; potency is read from the fitted curve at half-maximal effect; tags tell the direction and shape of the fitted curve.
SMILES,Potency,"activity change, negative = growth inhibition"
CCOc1ccc(C(=O)NC(=S)N2CCN(c3ccc(C(F)(F)F)cc3[N+](=O)[O-])CC2)cc1,"inconclusive: 29.1 µM [inhibitor, single point]",
CCOC(=O)c1c(NC(=O)CN2CCN(C(=O)C3CCCO3)CC2)sc(C)c1C (configuration not stated),"inconclusive: 23.1 µM [inhibitor, partial curve, poor fit]",
O=C(NNC1=C(C(=O)C(F)(F)F)CCC1)c1cccc(O)c1,"inconclusive: 29.1 µM [inhibitor, single point]",
Cc1c(Cl)cccc1NC(=O)CN1CCC(NC(=O)C2CCCCC2)CC1,"inconclusive: 29.1 µM [inhibitor, single point]",
CC(=O)n1cc(/C=N/NC(=O)c2ccc([N+](=O)[O-])cc2)c2ccccc21,,inactive: -26.8%
O=c1c2c3nc4ccccc4nc3n(-c3ccc4c(c3)OCCO4)c2ncn1C1CCCC1,"inconclusive: 23.1 µM [inhibitor, single point]",
O=C(Nc1ccc(N2CCCC2)cc1)c1cccc(-c2cc3ccccc3oc2=O)c1,active: 16.4 µM,
O=C(C(Cc1ccccc1)n1cccc1)N1CCN(c2cccc(Cl)c2)CC1 (configuration not stated),"inconclusive: 29.1 µM [inhibitor, single point]",
COc1cccc(C(=O)NNC(=O)C(=O)Nc2cccc3ccccc23)c1,"inconclusive: 14.6 µM [inhibitor, partial curve]",
CCCCc1nc(SCC(=O)Nc2nnc(C(C)C)s2)n[nH]1,,inactive: -21.8%
O=C(COc1ccc(Cl)cc1Cl)NCC1(N2CCOCC2)CCCCC1,active: 18.4 µM,
Cc1ccc(S(=O)(=O)N[C@H](C(=O)N2CCC(C(=O)N[C@H](C(=O)O)c3ccccc3)CC2)C(C)C)cc1,,inactive: 2.07%
CC(C)c1ccc(/C=C2\SC(=S)N(CCC(=O)NCCCn3ccnc3)C2=O)cc1,"inconclusive: 25.9 µM [inhibitor, single point]",
O=c1cc(-c2ccc(O)cc2)oc2cc(O)cc(O)c12,"inconclusive: 23.7 µM [inhibitor, partial curve, poor fit] and inconclusive: 53.1 µM [inhibitor, single point] and inconclusive: 18.4 µM [inhibitor, single point]",
C/C(=N\NC(=O)c1nnn(-c2nonc2N)c1CSc1ccc(C)cc1)c1cccnc1,"inconclusive: 29.1 µM [inhibitor, single point]",
O=C(Nc1ccc2c(c1)OCCO2)NC12CC3CC(CC(C3)C1)C2,"inconclusive: 23.1 µM [inhibitor, single point]",
O=C(CN1CCCC1)NC(c1ccccc1)c1ccccc1,active: 20.6 µM,
